Data on 52 sequences can be found in publication PMC5892938.

The list shows a part of the results. The source does not settle which construct or isoform was used.

For this assay, the target named is GST-SBP-ILF3 (Homo sapiens) (UniProt Q12906). Nature of the assay: targeted RNA Bind-n-Seq. The following applies: RBNS binding buffer: 25 mM Tris pH 7.5, 150 mM KCl, 3 mM MgCl2, 0.1% Tween, 0.5 mg/mL BSA, 1 mM DTT; 27 nM protein, 750 pM RNA pool; temperature not stated; high values mean tight binding; sequences stand for … in GGGUAAAAGCGAGGUGAA…CGGGACAAGUAUUAUGGG
As to “UUCUCUCUUCCUCCAUUGGAGGAGGAGGGA [ctspaired]”, the binding signal (log2 fold change) turned out to be 0.14. In the case of “GGUUGUGGUGUUGGCUUCUAACACCGCAGC [gtspaired]” it was -0.573.

“UUUUUUUUUUGAGAUGGUAACUAUCUCCGG [tttttgagapaired]”: the binding signal (log2 fold change) was determined as 0.253. In the case of “UUUUUUUUUUGAGAUGGAAACCAUCUCCUA [tttttgagapaired]” it was -0.22. Consider “UUUUUUUUUUGAGAGGGGGCCCCUUUCCAG [tttttgagapaired]”, for which the binding signal (log2 fold change) was determined as 0.547. With “UUUUUUUUUUGAGAUCGGUGCGAUCUCCAG [tttttgagapaired]”, the binding signal (log2 fold change) amounted to 0.354. In the case of “GUGUGUGGUGUUGGAUUCUAACACCGCGCG [gtspaired]” it was -0.697; in that of “UUUUUUUUUUGAGAUGGGCCCCAUCUCCUA [tttttgagapaired]”, 0.751; in that of “GGUGGUGGUGUUGGAUCCUAACACCAUCGC [gtspaired]”, -0.422.

Take “UUUUUUUUUUGAGACUGAAGCAGUCUCCGG [tttttgagapaired]”: the binding signal (log2 fold change) amounted to 0.445.

“UUUUUUUUUUGAGAGGGCGCCCCUCUCCGG [tttttgagapaired]”: the binding signal (log2 fold change) was 0.687. With “UUUUUUUUUUGAGAGGGACUCCUUCUCCGG [tttttgagapaired]”, the binding signal (log2 fold change) was determined as 0.101.

In the case of “GUGUGUGGUGUUGGAAUCUAACACCGCGCG [gtspaired]”, the binding signal (log2 fold change) is -0.795.

For the sequence “UUUUUUUUUUGAGAUCGACGCGAUCUUCUA [tttttgagapaired]”, the binding signal (log2 fold change) was determined as 0.357. In the case of “GUGUGGUGUGUUGGCUUCUAACACAUCACA [gtspaired]” it was -0.595; in that of “GUGUGGUGUGUUGGUAUCUAACACACCGCG [gtspaired]”, -0.0391; in that of “UUUUUUUUUUGAGAGCGAUCCGCUCUCCAG [tttttgagapaired]”, 0.227. In the case of “UUUUUUUUUUGAGAUGGACGCCAUCUCCAG [tttttgagapaired]”, the binding signal (log2 fold change) worked out at 0.533.

Consider “UUUUUUUUUUGAGACUGUGUCAGUCUCCAG [tttttgagapaired]”, for which the binding signal (log2 fold change) was determined as 0.557. In the case of “UUUUUUUUUUGAGACCGGAUCGGUCUCCUG [tttttgagapaired]”, the binding signal (log2 fold change) stood at 0.417. As to “UUUUUUUUUUGAGACGGCGGCCGUUUCCUG [tttttgagapaired]”, the binding signal (log2 fold change) was 0.911. Take “GGUGGUGGUGUUGGUGCCUAACACCGCUAC [gtspaired]”: the binding signal (log2 fold change) is -0.436. Regarding “GUGGUGUGUGUUGGACCCUAACACACACUA [gtspaired]”, the binding signal (log2 fold change) is 0.189. In the case of “UUUUUUUUUUGAGACCGAGUCGGUUUCCUG [tttttgagapaired]”, the binding signal (log2 fold change) is 0.866. For “GUGUGGUGUGUUGGUCUCUAACACACUACG [gtspaired]” the value was -0.844; for “GUGGUUGGUGUUGGUAUCUAACACCAGCCG [gtspaired]”, -0.581; for “UUUUUUUUUUGAGAUGGGCACUAUCUCCUG [tttttgagapaired]”, 0.686. As to “GUGGUUGGUGUUGGCGCCUAACACCAGCCG [gtspaired]”, the binding signal (log2 fold change) was -0.426. On to “UUUUUUUUUUGAGAUCGAAGCGAUCUCCGG [tttttgagapaired]”, for which the binding signal (log2 fold change) came to 0.166. For “UUUUUUUUUUGAGACGGCGACUGUCUCCUA [tttttgagapaired]”, the binding signal (log2 fold change) worked out at 1.01. For “UUUUUUUUUUGAGAACGGACCGUUCUCCGG [tttttgagapaired]” the value was 0.532; for “UUUUUUUUUUGAGACCGGAACGGUCUCCUG [tttttgagapaired]”, 0.142; for “GGUUGUUGUGUUGGCAUCUAACACAGCAAC [gtspaired]”, -0.533. Turning to “UUUUUUUUUUGAGACUGCAACAGUCUUCUA [tttttgagapaired]”, the binding signal (log2 fold change) turned out to be 0.182. For “UUUUUUUUUUGAGACUGCUGCAGUCUCCAG [tttttgagapaired]” the value was 0.661. On to “UUUUUUUUUUGAGAUGGGCUCCAUCUCCUA [tttttgagapaired]”, for which the binding signal (log2 fold change) came out at 0.445. “GUGGUGUGUGUUGGACUCUAACACACGCCG [gtspaired]”: the binding signal (log2 fold change) was -0.608. On to “UUUUUUUUUUGAGACCGGAUCGGUUUCCUA [tttttgagapaired]”, for which the binding signal (log2 fold change) is 0.598. With “UUUUUUUUUUGAGAGCGAGUCGUUCUCCGG [tttttgagapaired]”, the binding signal (log2 fold change) was determined as 0.144. For the sequence “UUUUUUUUUUGAGACUGAAGCAGUCUUCUA [tttttgagapaired]”, the binding signal (log2 fold change) was 0.0841. With “GUGGUGUGUGUUGGAUCCUAACACAUACUA [gtspaired]”, the binding signal (log2 fold change) is -0.73. On to “UUUUUUUUUUGAGACGGGGGCCGUCUCCUG [tttttgagapaired]”, for which the binding signal (log2 fold change) was found to be 0.936.

Consider “UUUUUUUUUUGAGAUGGCAGCUAUCUCCAG [tttttgagapaired]”, for which the binding signal (log2 fold change) worked out at 0.55.

As for “UUUUUUUUUUGAGACGGGGUCCGUCUUCUA [tttttgagapaired]”, the binding signal (log2 fold change) turned out to be 0.919.

As to “UUUUUUUUUUGAGAGCGAAGCGCUCUUCUA [tttttgagapaired]”, the binding signal (log2 fold change) turned out to be 0.197. On to “UUUUUUUUUUGAGAGCGAGCCGCUCUCCUG [tttttgagapaired]”, for which the binding signal (log2 fold change) is 0.201. Take “UUUUUUUUUUGAGACGGUGACCGUCUCCUA [tttttgagapaired]”: the binding signal (log2 fold change) is 0.399. Take “UUUUUUUUUUGAGAUCGAAACGAUCUCCAG [tttttgagapaired]”: the binding signal (log2 fold change) amounted to 0.164. For the sequence “GUGUGGUGUGUUGGUCCCUAACACACUACA [gtspaired]”, the binding signal (log2 fold change) amounted to 0.085.

Take “UUUUUUUUUUGAGACCGCGACGGUCUCCUA [tttttgagapaired]”: the binding signal (log2 fold change) worked out at 0.382. In the case of “UUUUUUUUUUGAGAGGGGAUCCCUCUUCUA [tttttgagapaired]” it was 0.424. As for “UUUUUUUUUUGAGAUCGAAACGAUUUCCGG [tttttgagapaired]”, the binding signal (log2 fold change) stood at 0.0288.
